No constants are given. Whether binding was seen depends on the method and setting. In cells and extracts the contact can be indirect. Some results given as binding are weak or reduced against the parent protein; the word gives no strength.

Sequences of proteins named here, by UniProt entry; tags and fusion partners are left off. A change or cut given only in a name is not applied to a line headed by its entry. A line that says so, or that is headed by a name, gives the form on record, which may keep a tag or linker. Residues count along the entry.
UniProt Q92560: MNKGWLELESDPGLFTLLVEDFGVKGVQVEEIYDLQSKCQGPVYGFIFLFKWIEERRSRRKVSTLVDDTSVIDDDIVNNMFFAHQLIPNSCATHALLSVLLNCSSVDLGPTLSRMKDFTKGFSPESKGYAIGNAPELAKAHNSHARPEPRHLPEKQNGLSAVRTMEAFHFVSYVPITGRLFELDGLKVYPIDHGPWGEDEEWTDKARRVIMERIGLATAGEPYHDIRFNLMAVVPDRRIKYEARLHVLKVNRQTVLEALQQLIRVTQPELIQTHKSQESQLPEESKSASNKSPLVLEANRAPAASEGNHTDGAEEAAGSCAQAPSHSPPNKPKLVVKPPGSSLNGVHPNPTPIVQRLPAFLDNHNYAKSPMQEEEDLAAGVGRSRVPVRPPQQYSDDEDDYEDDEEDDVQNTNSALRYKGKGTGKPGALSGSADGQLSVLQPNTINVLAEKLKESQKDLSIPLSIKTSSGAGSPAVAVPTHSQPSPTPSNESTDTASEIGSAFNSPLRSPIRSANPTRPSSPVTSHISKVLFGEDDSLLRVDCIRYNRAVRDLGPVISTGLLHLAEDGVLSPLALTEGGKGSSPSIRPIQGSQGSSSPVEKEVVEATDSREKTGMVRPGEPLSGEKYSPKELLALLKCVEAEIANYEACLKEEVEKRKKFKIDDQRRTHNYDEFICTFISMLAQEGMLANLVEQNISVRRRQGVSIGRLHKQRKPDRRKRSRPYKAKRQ
UniProt Q8IXJ9: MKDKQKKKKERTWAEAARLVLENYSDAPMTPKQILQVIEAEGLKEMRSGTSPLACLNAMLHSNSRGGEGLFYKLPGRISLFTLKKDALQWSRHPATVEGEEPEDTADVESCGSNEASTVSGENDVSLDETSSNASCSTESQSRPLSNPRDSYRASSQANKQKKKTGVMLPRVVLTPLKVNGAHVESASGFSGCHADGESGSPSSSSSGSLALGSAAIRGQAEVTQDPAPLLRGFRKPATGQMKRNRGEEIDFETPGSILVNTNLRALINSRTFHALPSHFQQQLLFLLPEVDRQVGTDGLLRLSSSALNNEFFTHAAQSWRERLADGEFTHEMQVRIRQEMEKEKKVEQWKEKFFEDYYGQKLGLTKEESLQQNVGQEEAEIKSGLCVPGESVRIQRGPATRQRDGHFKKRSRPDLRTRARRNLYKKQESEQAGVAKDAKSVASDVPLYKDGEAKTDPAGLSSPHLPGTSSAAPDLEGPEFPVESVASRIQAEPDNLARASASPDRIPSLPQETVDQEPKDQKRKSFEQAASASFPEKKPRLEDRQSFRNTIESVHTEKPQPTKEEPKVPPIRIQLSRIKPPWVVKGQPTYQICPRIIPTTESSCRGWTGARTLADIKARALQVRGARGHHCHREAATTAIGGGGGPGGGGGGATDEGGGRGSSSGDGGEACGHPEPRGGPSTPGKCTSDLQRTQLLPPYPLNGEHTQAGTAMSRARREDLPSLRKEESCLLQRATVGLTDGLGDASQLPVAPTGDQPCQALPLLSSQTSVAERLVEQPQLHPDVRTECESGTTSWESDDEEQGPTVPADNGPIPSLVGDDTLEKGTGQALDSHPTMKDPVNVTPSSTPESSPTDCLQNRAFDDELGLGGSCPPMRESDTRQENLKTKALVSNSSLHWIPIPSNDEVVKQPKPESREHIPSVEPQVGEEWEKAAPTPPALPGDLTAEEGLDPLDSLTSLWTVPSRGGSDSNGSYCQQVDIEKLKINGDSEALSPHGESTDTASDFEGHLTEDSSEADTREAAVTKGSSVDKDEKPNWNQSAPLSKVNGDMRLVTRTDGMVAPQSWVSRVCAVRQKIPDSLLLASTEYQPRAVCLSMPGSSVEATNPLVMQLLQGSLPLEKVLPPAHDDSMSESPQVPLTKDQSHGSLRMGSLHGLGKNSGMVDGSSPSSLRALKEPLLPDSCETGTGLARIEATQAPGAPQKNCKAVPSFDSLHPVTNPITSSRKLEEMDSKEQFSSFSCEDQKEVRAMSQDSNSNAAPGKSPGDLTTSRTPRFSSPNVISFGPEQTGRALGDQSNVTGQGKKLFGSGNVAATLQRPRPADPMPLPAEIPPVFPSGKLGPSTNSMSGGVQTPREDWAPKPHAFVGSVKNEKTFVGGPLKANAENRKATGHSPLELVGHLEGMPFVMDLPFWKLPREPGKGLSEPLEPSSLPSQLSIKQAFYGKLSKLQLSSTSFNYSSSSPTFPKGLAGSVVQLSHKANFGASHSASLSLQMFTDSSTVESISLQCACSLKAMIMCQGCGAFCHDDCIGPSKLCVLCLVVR
ASXL1^N646-Flag (in HEK293T): residues 1-646 of Q8IXJ9
Flag-tagged C-terminally truncated ASXL1 N590: residues 1-590 of Q8IXJ9
UniProt Q01167: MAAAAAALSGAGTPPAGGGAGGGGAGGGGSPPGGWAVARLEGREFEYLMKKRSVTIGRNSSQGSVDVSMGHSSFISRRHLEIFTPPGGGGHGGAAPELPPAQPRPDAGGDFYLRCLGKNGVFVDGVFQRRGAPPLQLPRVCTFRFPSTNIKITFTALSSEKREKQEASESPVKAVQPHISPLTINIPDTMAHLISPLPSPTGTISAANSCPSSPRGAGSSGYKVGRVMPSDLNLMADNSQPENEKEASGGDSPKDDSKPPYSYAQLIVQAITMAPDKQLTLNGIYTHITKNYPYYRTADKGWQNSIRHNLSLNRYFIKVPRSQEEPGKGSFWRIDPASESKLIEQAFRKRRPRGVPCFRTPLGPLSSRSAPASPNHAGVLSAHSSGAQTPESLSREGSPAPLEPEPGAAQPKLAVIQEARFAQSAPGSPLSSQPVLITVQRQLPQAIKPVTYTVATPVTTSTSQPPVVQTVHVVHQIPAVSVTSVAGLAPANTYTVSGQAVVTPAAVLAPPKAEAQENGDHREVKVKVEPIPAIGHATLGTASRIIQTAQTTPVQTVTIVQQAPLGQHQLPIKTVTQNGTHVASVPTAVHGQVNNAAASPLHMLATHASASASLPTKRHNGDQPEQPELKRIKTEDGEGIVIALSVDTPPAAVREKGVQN

The values that follow come from paper PMC8225741.

Assay [1] addresses Flag-tagged BAP1 (BRCA1-associated protein 1) (human) (UniProt Q92560). Briefly: co-IP; HEK293T co-transfected with BAP1-Flag and increasing amounts of ASXL1^N646-Myc; anti-Flag IP, endogenous ASXL1 detected by Western blot (competition).
In assay [2] the target is ASXL1^N646-Flag (in HEK293T) (human) (UniProt Q8IXJ9). The assay can be described thus: co-IP; HEK293T transfected with the Flag-tagged protein; lysis in 50 mmol/L Tris-HCl, 150 mmol/L NaCl, 0.3% sodium deoxycholate, 0.5% NP-40, pH 7.4; anti-Flag beads 3 h at 4 °C; endogenous partners by Western blot; also in BAP1 knockdown (Flag-ASXL1) and ASXL1 knockdown (Flag-BAP1) cells.

Assay [3] addresses Flag-tagged C-terminally truncated ASXL1 N590 (human) (UniProt Q8IXJ9). Described as above.
Assay [4] addresses Flag-tagged wild-type ASXL1 (in HEK293T) (human) (UniProt Q8IXJ9). The assay is described as above.
For assay [5], the target named is endogenous BAP1 (human (endogenous in U2OS, HEK293T, K562, Kasumi-1)) (UniProt Q92560). Briefly: co-IP; endogenous proteins in K562 and Kasumi-1 lysates (ASXL1^+/N590, ASXL1^+/N646 and ASXL1^+/− clones); IP with anti-BAP1 antibody, 3 h at 4 °C, Western blot. (A western blot detects proteins with antibodies after separation by electrophoresis.)

As to “ASXL1^N646-Myc (from UniProt Q8IXJ9 1-646) (domain or fragment)”, in assay [1], the binding entry is “binds”.
For the substance “endogenous BAP1 (from UniProt Q92560 1-729) (enzyme)”, the binding result in assay [2], in assay [3] and in assay [4] was “binds” in each case.
As to “endogenous FOXK2 (from UniProt Q01167 1-660)”, the binding result is reported as “no binding” in assay [2], “no binding” in assay [3] and “binds” in assay [4].
For the substance “endogenous wild-type ASXL1 (Additional sex combs-like 1) (from UniProt Q8IXJ9 1-1541)”, the binding result in assay [1] and in assay [5] was “binds” each time.
